Experimental data from a collection of fitness landscapes (doi:10.1038/s41467-024-54723-y).
In all, about 18,000 sequences were measured (“TetR repression strength (sort-seq, GFP reporter)”: median about 0.23, highest 2% from about 0.68 on). Some of the results follow.

Target: TetR (class B, Tn10) (UniProt P04483)
Test: TetR repression strength (sort-seq, GFP reporter) (relative to tetO2 = 1); higher = stronger repression
Conditions: E. coli
Summary of the method: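 Escherichia coli SIG10-MAX cells carried a low-copy plasmid library in which eight operator positions were randomized between a constitutive promoter and sfGFP, and TetR was expressed constitutively. After 5 h of growth at 37 °C in LB with 50 µg/mL chloramphenicol, 10^6 cells were FACS-sorted into 13 fluorescence bins, and each bin was Illumina-sequenced. Repression strength was the top bin index plus one minus the read-weighted mean bin, divided by the value for the unaltered operator. Across three independent transformations, only library members with ≥30 reads in every replicate and a CV ≤0.5 were averaged.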

Chain of UniProt P04483 (P04483 whole entry): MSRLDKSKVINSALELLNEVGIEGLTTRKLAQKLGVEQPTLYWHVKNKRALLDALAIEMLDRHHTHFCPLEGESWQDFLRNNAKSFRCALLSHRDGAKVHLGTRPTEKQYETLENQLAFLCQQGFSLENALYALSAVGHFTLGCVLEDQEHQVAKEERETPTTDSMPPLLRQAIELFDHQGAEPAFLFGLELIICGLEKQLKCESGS

| Sequence | TetR repression strength |
| --- | --- |
| TCCCGAGAAGTCAAGGAGA | 0.509 |
| TCCCCGAAAGTCGTCGAGA | 0.317 |
| TCCCGGGGAGTTTTAGAGA | 0.547 |
| TCCCCTAAAGTGGGCGAGA | 0.563 |
| TCCCTATGAGTTTAAGAGA | 1.03 |
| TCCCTGAGAGTACGTGAGA | 0.304 |
| TCCCGTGTAGTCCGGGAGA | 0.18 |
| TCCCAATGAGTGCCCGAGA | 0.285 |
| TCCCGAATAGTCACAGAGA | 0.4 |
| TCCCAAGAAGTAGAAGAGA | 0.257 |
| TCCCTCTCAGTGATAGAGA | 0.866 |
| TCCCTCAGAGTTGGTGAGA | 1.2 |
| TCCCTTTCAGTGGTTGAGA | 0.32 |
| TCCCACGGAGTTTTAGAGA | 0.34 |
| TCCCTCGTAGTCACGGAGA | 0.411 |
| TCCCCCTCAGTGTGCGAGA | 0.303 |
| TCCCTTGCAGTACCTGAGA | 0.0207 |
| TCCCCCACAGTCATGGAGA | 0.201 |
| TCCCACTTAGTGGCAGAGA | 0.171 |
| TCCCTCCAAGTGGTGGAGA | 0.235 |
| TCCCATTAAGTATATGAGA | 0.278 |
| TCCCCACCAGTTAAAGAGA | 0.311 |
| TCCCGGGTAGTGGGAGAGA | 0.174 |
| TCCCTGGGAGTAACGGAGA | 0.283 |
| TCCCTTCAAGTGTTTGAGA | 0.308 |
| TCCCGTTTAGTGAGTGAGA | 0.23 |

| Sequence | TetR repression strength |
| --- | --- |
| TCCCGACCAGTGCACGAGA | 0.42 |
| TCCCGGGTAGTCTGCGAGA | 0.185 |
| TCCCGCTGAGTATTAGAGA | 0.352 |
| TCCCATCCAGTAGGTGAGA | 0.165 |
| TCCCAAGGAGTTTTGGAGA | 0.26 |
| TCCCGGTTAGTTGCTGAGA | 0.224 |
| TCCCCTTCAGTGTCCGAGA | 0.395 |
| TCCCACATAGTAGAGGAGA | 0.163 |
| TCCCGGGTAGTGGCTGAGA | 0.404 |
| TCCCCATGAGTACTAGAGA | 0.424 |
| TCCCTGGTAGTTCGGGAGA | 0.0446 |
| TCCCTTTAAGTATTAGAGA | 0.0716 |
| TCCCTGATAGTCGTGGAGA | 0.346 |
| TCCCGCGGAGTAGTAGAGA | 0.279 |
| TCCCGAGAAGTGTGCGAGA | 0.184 |
| TCCCCTCGAGTTGCCGAGA | 0.361 |
| TCCCTATCAGTGACGGAGA | 0.472 |
| TCCCCTACAGTTTTGGAGA | 0.0179 |
| TCCCATCAAGTTTGGGAGA | 0.16 |
| TCCCACAAAGTATAGGAGA | 0.307 |
| TCCCGGTTAGTGGGGGAGA | 0.196 |
| TCCCGCGTAGTCTGCGAGA | 0.305 |
| TCCCGTGAAGTGAAGGAGA | 0.211 |
| TCCCCACAAGTAGGTGAGA | 0.214 |
| TCCCGTCAAGTCACTGAGA | 0.176 |
